# In the supplement of paper PMC8728848:
# The list shows a part of the results.
# B1: MIC1 (Toxoplasma gondii), O00834 (protein)
# chain: MGQALFLTVLLPVLFGVGPEAYGEASHSHSPASGRYIQQMLDQRCQEIAAELCQSGLRKMCVPSSRIVARNAVGITHQNTLQWRCFDTASLLESNQENNGVNCVDDCGHTIPCPGGVHRQNSNHATRHEILSKLVEEGVQRFCSPYQASANKYCNDKFPGTIARRSKGFGNNVEVAWRCYEKASLLYSVYAECASNCGTTWYCPGGRRGTSTELDKRHYTEEEGIRQAIGSVDSPCSEVEVCLPKDENPPLCLDESGQISRTGGGPPSQPPEMQQPADRSDERGGGKEQSPGGEAQPDHPTKGGNIDLPEKSTSPEKTPKTEIHGDSTKATLEEGQQLTLTFISTKLDVAVGSCHSLVANFLDGFLKFQTGSNSAFDVVEVEEPAGPAVLTIGLGHKGRLAVVLDYTRLNAALGSAAYVVEDSGCSSSEEVSFQGVGSGATLVVTTLGESPTAVSA
# Key:
# Assay in all cases: glycan array binding signal (z-score within array); higher = stronger binding
# Details in all cases: glycan notation: IUPAC condensed, linker removed
# [1] = target: GalNAc(b1-3)GalNAc
# Method in brief: (§1)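 Glycan array data were curated from 3228 arrays in the Consortium for Functional Glycomics database and kept only where the protein sequence was available. Glycan names were converted to IUPAC-condensed notation, and columns mapping to the same glycan were averaged. The binding signal is a within-array Z-score, averaged across arrays of the same protein sequence at different concentrations or buffers and across linkers. Negative Z-scores can be read as non-binding.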
# [2] = target: GalNAc(b1-4)GlcNAc
# Method in brief: as §1
# [3] = target: Glc(a1-4)Glc
# Method in brief: as §1
# [4] = target: Glc(a1-6)Glc(a1-6)Glc
# Method in brief: as §1
# [5] = target: Glc(b1-4)Glc
# Method in brief: as §1
# [6] = target: Glc(b1-6)Glc
# Method in brief: as §1
# [7] = target: GlcA(b1-3)Gal
# Method in brief: as §1
# [8] = target: GlcA(b1-3)GlcNAc
# Method in brief: as §1
# [9] = target: GlcA(b1-6)Gal
# Method in brief: as §1
# [10] = target: GlcNAc(a1-3)Gal(b1-4)GlcNAc
# Method in brief: as §1
# [11] = target: GlcNAc(a1-6)Gal(b1-4)GlcNAc
# Method in brief: as §1
# [12] = target: GlcNAc(b1-2)Gal(b1-3)GalNAc
# Method in brief: as §1
# [13] = target: GlcNAc(b1-2)Man(a1-3)[GlcNAc(b1-2)Man(a1-6)]Man(b1-4)GlcNAc(b1-4)GlcNAc
# Method in brief: as §1
# [14] = target: GlcNAc(b1-3)Gal
# Method in brief: as §1
# [15] = target: GlcNAc(b1-3)Gal(b1-3)GalNAc
# Method in brief: as §1
# [16] = target: GlcNAc(b1-3)Gal(b1-4)Glc
# Method in brief: as §1
# [17] = target: GlcNAc(b1-3)Gal(b1-4)GlcNAc
# Method in brief: as §1
# [18] = target: GlcNAc(b1-3)Gal(b1-4)GlcNAc(b1-3)Gal(b1-4)GlcNAc
# Method in brief: as §1
# [19] = target: GlcNAc(b1-3)GalNAc
# Method in brief: as §1
# [20] = target: GlcNAc(b1-3)Man
# Method in brief: as §1
# [21] = target: GlcNAc(b1-3)[GlcNAc(b1-4)][GlcNAc(b1-6)]GlcNAc
# Method in brief: as §1
# [22] = target: GlcNAc(b1-3)[GlcNAc(b1-6)]Gal(b1-4)GlcNAc
# Method in brief: as §1
# [23] = target: GlcNAc(b1-3)[GlcNAc(b1-6)]GalNAc
# Method in brief: as §1
# [24] = target: GlcNAc(b1-4)Gal(b1-4)GlcNAc
# Method in brief: as §1
# [25] = target: GlcNAc(b1-4)GlcNAc
# Method in brief: as §1
# [26] = target: GlcNAc(b1-4)GlcNAc(b1-4)GlcNAc
# Method in brief: as §1
# [27] = target: GlcNAc(b1-4)GlcNAc(b1-4)GlcNAc(b1-4)GlcNAc(b1-4)GlcNAc
# Method in brief: as §1
# [28] = target: GlcNAc(b1-4)GlcNAc(b1-4)GlcNAc(b1-4)GlcNAc(b1-4)GlcNAc(b1-4)GlcNAc
# Method in brief: as §1
# [29] = target: GlcNAc(b1-4)[GlcNAc(b1-6)]GalNAc
# Method in brief: as §1
# [30] = target: GlcNAc(b1-6)Gal(b1-4)GlcNAc
# Method in brief: as §1
# [31] = target: GlcNAc(b1-6)GalNAc
# Method in brief: as §1
# [32] = target: GlcNAc3Prop(b1-4)GlcNAc
# Method in brief: as §1
# [33] = target: Kdn(a2-3)Gal(b1-3)GlcNAc
# Method in brief: as §1
# [34] = target: Kdn(a2-3)Gal(b1-4)GlcNAc
# Method in brief: as §1
# [35] = target: Man(a1-2)Man(a1-2)Man(a1-3)Man
# Method in brief: as §1
# [36] = target: Man(a1-2)Man(a1-2)Man(a1-6)[Man(a1-3)]Man
# Method in brief: as §1
# [37] = target: Man(a1-2)Man(a1-3)Man
# Method in brief: as §1
# [38] = target: Man(a1-2)Man(a1-3)[Man(a1-2)Man(a1-6)]Man
# Method in brief: as §1
# [39] = target: Man(a1-2)Man(a1-3)[Man(a1-2)Man(a1-6)]Man(a1-6)[Man(a1-2)Man(a1-2)Man(a1-3)]Man
# Method in brief: as §1
# [40] = target: Man(a1-2)Man(a1-3)[Man(a1-2)Man(a1-6)]Man(a1-6)[Man(a1-2)Man(a1-2)Man(a1-3)]Man(b1-4)GlcNAc(b1-4)GlcNAc
# Method in brief: as §1
# [41] = target: Man(a1-2)Man(a1-3)[Man(a1-6)]Man(a1-6)[Man(a1-2)Man(a1-3)]Man(b1-4)GlcNAc(b1-4)GlcNAc
# Method in brief: as §1
# [42] = target: Man(a1-2)Man(a1-6)[Man(a1-3)]Man(a1-6)[Man(a1-2)Man(a1-2)Man(a1-3)]Man
# Method in brief: as §1
# [43] = target: Man(a1-2)Man(a1-6)[Man(a1-3)]Man(a1-6)[Man(a1-2)Man(a1-2)Man(a1-3)]Man(b1-4)GlcNAc(b1-4)GlcNAc
# Method in brief: as §1
# [44] = target: Man(a1-3)[Man(a1-6)]Man
# Method in brief: as §1
# [45] = target: Man(a1-3)[Man(a1-6)]Man(a1-6)[Man(a1-2)Man(a1-3)]Man(b1-4)GlcNAc(b1-4)GlcNAc
# Method in brief: as §1
binder,measurement,setting,value
B1,glycan array binding signal (z-score),[1],-0.2
same,glycan array binding signal (z-score),[2],-0.214
same,glycan array binding signal (z-score),[3],-0.118
same,glycan array binding signal (z-score),[4],-0.251
same,glycan array binding signal (z-score),[5],-0.065
same,glycan array binding signal (z-score),[6],-0.336
same,glycan array binding signal (z-score),[7],-0.201
same,glycan array binding signal (z-score),[8],-0.176
same,glycan array binding signal (z-score),[9],-0.304
same,glycan array binding signal (z-score),[10],0.163
same,glycan array binding signal (z-score),[11],-0.27
same,glycan array binding signal (z-score),[12],-0.143
same,glycan array binding signal (z-score),[13],-0.227
same,glycan array binding signal (z-score),[14],-0.169
same,glycan array binding signal (z-score),[15],-0.315
same,glycan array binding signal (z-score),[16],-0.138
same,glycan array binding signal (z-score),[17],-0.195
same,glycan array binding signal (z-score),[18],-0.262
same,glycan array binding signal (z-score),[19],-0.169
same,glycan array binding signal (z-score),[20],-0.15
same,glycan array binding signal (z-score),[21],-0.08
same,glycan array binding signal (z-score),[22],-0.289
same,glycan array binding signal (z-score),[23],0.019
same,glycan array binding signal (z-score),[24],-0.098
same,glycan array binding signal (z-score),[25],-0.252
same,glycan array binding signal (z-score),[26],-0.298
same,glycan array binding signal (z-score),[27],-0.267
same,glycan array binding signal (z-score),[28],-0.077
same,glycan array binding signal (z-score),[29],-0.126
same,glycan array binding signal (z-score),[30],0.12
same,glycan array binding signal (z-score),[31],-0.41
same,glycan array binding signal (z-score),[32],-0.196
same,glycan array binding signal (z-score),[33],-0.158
same,glycan array binding signal (z-score),[34],-0.256
same,glycan array binding signal (z-score),[35],-0.194
same,glycan array binding signal (z-score),[36],-0.25
same,glycan array binding signal (z-score),[37],-0.118
same,glycan array binding signal (z-score),[38],-0.155
same,glycan array binding signal (z-score),[39],-0.307
same,glycan array binding signal (z-score),[40],-0.159
same,glycan array binding signal (z-score),[41],-0.312
same,glycan array binding signal (z-score),[42],-0.127
same,glycan array binding signal (z-score),[43],-0.186
same,glycan array binding signal (z-score),[44],-0.253
same,glycan array binding signal (z-score),[45],0.018
